# Measurements reported in publication PMC4336329 (PLoS ONE, 2015).
# The campaign covered roughly 310,000 compounds. About 2,200 (0.71%) showed an effect of 50% or more. Effects have a minus sign here. Some of the results follow.
# Biological target: human ether-à-go-go-related gene (hERG) potassium channel (human, UniProt Q12809)
# Assay: primary screen, population patch clamp on CHO cells stably expressing hERG
# Sequence of human ether-à-go-go-related gene (hERG) potassium channel (Q12809 whole entry, looked up): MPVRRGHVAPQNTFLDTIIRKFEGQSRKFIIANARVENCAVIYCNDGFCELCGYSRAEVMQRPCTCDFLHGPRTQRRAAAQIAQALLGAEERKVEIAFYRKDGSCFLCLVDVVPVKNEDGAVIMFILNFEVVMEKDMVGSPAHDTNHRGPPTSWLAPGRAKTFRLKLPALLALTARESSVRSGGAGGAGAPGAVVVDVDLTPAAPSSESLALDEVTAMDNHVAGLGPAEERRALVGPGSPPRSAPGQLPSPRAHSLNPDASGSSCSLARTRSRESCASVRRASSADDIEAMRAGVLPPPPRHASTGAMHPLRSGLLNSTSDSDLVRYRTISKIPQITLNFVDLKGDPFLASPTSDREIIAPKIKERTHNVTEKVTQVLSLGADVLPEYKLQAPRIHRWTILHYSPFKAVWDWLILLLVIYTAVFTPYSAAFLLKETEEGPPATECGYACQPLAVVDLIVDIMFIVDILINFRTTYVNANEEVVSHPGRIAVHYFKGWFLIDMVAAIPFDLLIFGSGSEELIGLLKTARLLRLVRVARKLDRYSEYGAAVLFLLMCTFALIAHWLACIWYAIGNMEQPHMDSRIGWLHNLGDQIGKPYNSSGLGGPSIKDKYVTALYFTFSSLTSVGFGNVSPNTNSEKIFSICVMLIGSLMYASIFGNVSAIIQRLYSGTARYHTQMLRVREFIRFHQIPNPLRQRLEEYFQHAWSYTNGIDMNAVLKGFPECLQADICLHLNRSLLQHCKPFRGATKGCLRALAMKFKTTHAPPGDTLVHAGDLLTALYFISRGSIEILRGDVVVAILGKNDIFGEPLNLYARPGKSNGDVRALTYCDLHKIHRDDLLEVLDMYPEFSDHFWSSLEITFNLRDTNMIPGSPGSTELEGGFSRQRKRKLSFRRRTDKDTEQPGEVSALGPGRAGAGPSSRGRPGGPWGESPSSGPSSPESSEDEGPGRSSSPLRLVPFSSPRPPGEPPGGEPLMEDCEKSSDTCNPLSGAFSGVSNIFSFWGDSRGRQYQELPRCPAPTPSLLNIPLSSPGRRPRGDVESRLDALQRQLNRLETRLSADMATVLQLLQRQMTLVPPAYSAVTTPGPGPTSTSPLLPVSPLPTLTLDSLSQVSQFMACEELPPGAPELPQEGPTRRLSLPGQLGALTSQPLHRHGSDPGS
row,Compound,"hERG current change (%, negative = inhibition) at 1uM [%]"
1,COC(CNC(=O)c1ccc2nc3ccccc3c(=O)n2c1)OC,8.84
2,Cc1ccc(NC2CCCN(C(=O)c3ccc4nccnc4c3)C2)cc1C (stereo not drawn),2.67
3,O=C(c1nn(Cc2ccccc2)c(=O)c2ccccc12)N1CCN(C/C=C/c2ccccc2)CC1,-38.3
4,Cc1cc(C(=O)NNC(=S)Nc2ccccc2C)cs1,12.6
5,COc1ccc(C)cc1NC(=O)CN1CCN(CC(=O)Nc2ccccc2F)CC1,-5.83
6,Cc1ccc(S(=O)(=O)N2CCN(C(=O)CC(C)n3nc(C)c(Cl)c3C)CC2)cc1 (stereo not drawn),5.03
7,COc1cccc(-n2c(SCC(N)=O)nnc2-c2c[nH]c3ccccc23)c1,2.62
8,Cn1c(C(=O)N2CCC(C(N)=O)CC2)cc2c(=O)n(C)c3ccccc3c21,13.1
9,CCC(CC)c1nnc(NC(=O)c2c(-c3ccccc3)noc2C)s1,8.89
10,Cc1nc2c(-c3ccccc3)c(C)nn2c(SCC(N)=O)c1Cc1ccccc1,12.3
11,COc1cc(C(=O)NCCNC(=O)c2cnccn2)cc(OC)c1OC,-7.23
12,CCCn1nnnc1SCC(=O)NCc1ccc2c(c1)OCO2,5.28
13,O=C1c2cccnc2C(=O)N1CNc1ccc(Cl)cc1,24.5
14,Cc1ccsc1C(=O)NCCc1ccco1,12.7
15,COc1cc(C(=O)N2CCN(c3cccc(C)c3C)CC2)ccc1OCC(=O)N1CCOCC1,10.8
16,CCCCn1nc2cc(C(=O)NCc3ccc(C(F)(F)F)cc3C(F)(F)F)ccc2c1OCC,9.37
17,N#CCCS(=O)(=O)c1ccc(N)cc1,1.38
18,COc1ccc(CCNC(=O)CCOc2ccc(C(C)(C)C)cc2)cc1OC,13.8
19,COc1ccccc1N1CCN(C(=O)c2cc3c(=O)n(C)c4ccccc4c3n2C)CC1,5.03
20,Cc1ccc(S(=O)(=O)N2CCOCC2)cc1N/N=C(\C#N)c1nc2ccccc2[nH]1,10.1
21,COc1ccc(F)cc1S(=O)(=O)Nc1ccncc1,16.4
22,CCN1CCc2[nH]c3ccccc3c2C1,3.73
23,CSC1=NCCN1C(=O)C12CC3CC(CC(C3)C1)C2,14.7

row,Compound,"hERG current change (%, negative = inhibition) at 1uM [%]"
1,O=C(C(=O)N1CCOCC1)c1cn(Cc2ccc(F)cc2)c2ccccc12,5.5
2,CCOC(=O)c1sc2nc(CC(=O)OC)nc(NCc3ccc(F)cc3)c2c1C,13.9
3,C=CCn1c(O)c(C(C)=Nc2ccc3c(c2)CCC3)c(=O)[nH]c1=O,7.56
4,COc1ccc(OCCSc2ncccn2)cc1,3.32
5,COC(=O)c1[nH]c2ccc(Cl)cc2c1NC(=O)CCN1CCN(C2CCCCC2)CC1,-69.5
6,O=C(NCc1cccnc1)c1ccc(NS(=O)(=O)c2ccc(F)cc2)cc1,9.05
7,Cc1c(NC(=O)/C(C#N)=C/c2ccccc2)c(=O)n(-c2ccccc2)n1C,8.78
8,Cc1cc(C(=O)NNC(=O)CCCOc2ccccc2)c(C)o1,10.5
9,CN(C)c1ccc(C(=O)C(=O)c2ccccc2)cc1,16.1
10,O=C1CCc2cc(S(=O)(=O)NC(C(=O)NCc3cccnc3)c3ccccc3)ccc2N1 (stereo not drawn),13
11,Cc1nc(NC(=O)c2ccccc2)sc1C1(C)CC(c2ccccc2F)=NO1 (stereo not drawn),11
12,CCN1C(=O)C(CC(=O)Nc2ccc(OC)cc2)N(Cc2ccc3c(c2)OCO3)C1=S (stereo not drawn),-0.826
13,Cc1ccc2[nH]c3c(c2c1)CN(C(=O)CN1CCCc2ccccc21)CC3,5.14
14,CC(=O)c1cc(-c2ccccc2)[nH]c1N1CCOCC1,8.39
15,Cc1ccccc1C(=O)NC(=S)NCc1ccccc1,7.6
16,O=C(Nc1ccc(F)cc1)C1(S(=O)(=O)c2ccc(Cl)cc2)CC1,-10.9
17,COc1ccc(C(=O)NCCCN2CCOCC2)cc1,4.24
18,CC1CCCC(C)N1CC(O)COCc1ccccc1F.Cl (stereo not drawn),14.2
19,CCOC(=O)C1CCN(C(=O)CCc2nc3ccccc3[nH]2)CC1,5.1
20,CCN(CC)S(=O)(=O)c1ccc(C)c(NC(=O)CNc2cccc(S(=O)(=O)N3CCOCC3)c2)c1,-14.2
21,CCOC1=NN(c2ncc(C(F)(F)F)cc2Cl)C(=O)/C1=C/N(C)C,11.3
22,Cc1ccsc1C(=O)Nc1cc(C(C)(C)C)nn1-c1ccccc1,-4.93
23,Cc1sc(NC(=O)c2cccnc2)nc1-c1ccccc1,20.9

row,Compound,"hERG current change (%, negative = inhibition) at 1uM [%]"
1,C/C(CC(=O)Nc1ccc2c(c1)OCCO2)=N\NC(=O)Cc1ccc(Cl)cc1,13.3
2,CCNC(=O)CSc1nnc(-c2cccs2)o1,12.4
3,CCCCNC(=S)Nc1ccc2nc(N3CCN(CC)CC3)cc(C)c2c1,-12.7
4,O=C(Nc1ccc(N2CCCCC2)cc1)c1cc(S(=O)(=O)N2CCOCC2)ccc1F,-8.27
5,CCOc1ccccc1N(CC(=O)Nc1ccc(OC)c(OC)c1)S(=O)(=O)c1ccccc1,9.89
6,Cc1nn(-c2ccccc2)c(Cl)c1C(=O)NCc1cccs1,6.11
7,CC1CCN(C(=O)CSc2ccc(-c3ccc4c(c3)OCCO4)nn2)CC1,5.8
8,CC(=O)NC(C(=O)OCC(=O)N(c1ccccc1)c1ccccc1)C(C)C (stereo not drawn),11.8
9,COc1ccc(NC(=O)CSc2nnc(Cc3cccs3)n2C)cc1,8.21
10,CCCc1nnc(SCC(=O)Nc2nnc(CC)s2)n1CC1CCCO1 (stereo not drawn),14.6
11,COc1cc(N)c(Cl)cc1C(=O)OCC(=O)NC1CCCC1,14.8
12,CC(=O)NC1=NN(C(C)=O)C(C)(c2cccnc2)S1 (stereo not drawn),14.4
13,CC1=C(C(=O)Nc2ccccc2C(=O)NC2CCCCC2C)SCCO1 (stereo not drawn),6.67
14,COc1cc(/C=C2\SC(=O)N(c3ccc(O)cc3)C2=O)cc(OC)c1OC,8.05
15,Cc1ccc(S(=O)(=O)N2CCC(C(=O)NCc3ccccc3CN3CCCC3)CC2)cc1C,-21.2
16,Cc1ccc(Cn2nnc3c(=O)n(Cc4cc(C)ccc4C)cnc32)cc1,14.6
17,Cn1c(C(=O)OCC(=O)NCC2CCCO2)cc2sccc21 (stereo not drawn),7.49
18,COc1ccc(C2C(C(=O)Nc3ccc(OC)c(OC)c3)c3ccccc3C(=O)N2C)cc1 (stereo not drawn),12
19,NC1=NC[C@@H](Cc2ccc(O)cc2)N1CC1CCCCC1,11.1
20,O=S(=O)(NCc1ccccc1)c1cccc2nsnc12,8.07
21,CCN(CC)C(=O)C1=C(C)NC(=S)NC1c1ccc(C)s1 (stereo not drawn),14.5
22,O=S(NC1CCCCC1)C12CC3CC(CC(C3)C1)C2 (stereo not drawn),-10.6
23,O=C(CCCC(=O)N1CCN(c2ccccc2F)CC1)N1CCN(c2ccccc2F)CC1,0.233

row,Compound,"hERG current change (%, negative = inhibition) at 1uM [%]"
1,Cc1c(O)c(CN2CCCC2)cc2c1oc(=O)c1ccccc12,7
2,CSCC[C@H](NC(=O)c1cccs1)C(=O)N1CCC2(CC1)NCCc1[nH]cnc12,11
3,COc1ccccc1CN1CCCC(C(=O)N2CCCCC2)C1.O=C(O)C(=O)O (stereo not drawn),16.7
4,CC(=O)Nc1ccc2nc(NC(=O)CCc3ccccc3)sc2c1,10.7
5,COc1ccc(N/C(N)=N/c2nc(C)cc(C)n2)c(OC)c1,-2.86
6,CCOC(=O)c1ccc(NC(=O)COc2ccccc2CNC2CCCC2)cc1.Cl,-17.7
7,CCC(C(=O)NC1C(=O)N2C(C(=O)O)=C(CSc3nnc(C)s3)CSC12)c1ccccc1 (stereo not drawn),7.13
8,Cn1cnnc1SCC(=O)Nc1cc(S(=O)(=O)N2CCCCC2)ccc1Cl,6.68
9,N/C(=N\OC(=O)CCCc1ccccc1)c1ccccn1,18.3
10,CC(C)(C)C(=O)Oc1ccc2cc(-c3ccc4ccccc4n3)c(=O)oc2c1,3.65
11,CNC(=O)C1C(=S)NC(N)=C(C#N)C1c1ccccc1 (stereo not drawn),10.1
12,Cc1ccc(S(=O)(=O)NCc2nc3nc(C)cc(C)n3n2)c(C)c1,1.88
13,NC(=O)CN1C(=O)/C(=c2\sc3nc(=O)c(Cc4ccccc4)nn3c2=O)c2ccccc21,13.3
14,Cc1ccc(NC(=S)NNC(=O)c2ccco2)cc1,1.46
15,Cc1ccc(N2C(=O)C(Cl)=C(N3CCN(C)CC3)C2=O)c(C)c1,10.9
16,COc1ccc(C(=O)/C=C/c2ccc(OC3CSC3)cc2)cc1,3.93
17,CCOC(=O)C1(CCc2ccccc2)CCN(C(C)CSC)CC1 (stereo not drawn),-23.3
18,NC(=O)c1cc2ccccc2o/c1=N/NC(=O)c1cccs1,-7.73
19,COc1ccccc1CC(=O)N1CCC(n2nccc2NC(=O)C2CCOC2)CC1 (stereo not drawn),4.99
20,O=C(O)c1ccc(OCc2ccc(C(=O)O)o2)cc1,21.9
21,CC(C)C(C(=O)NC(C)(C)C)N1C(=O)c2ccccc2C1=O (stereo not drawn),7.73
